Laboratory results reported in PubChem BioAssay AID902 (National Center for Advancing Translational Sciences (NCATS), 2007).
Among all 130,000 compounds or so, about 1,900 (1.5%) were called active. This list was built around the results that the source calls inconclusive (neither active nor inactive); the mix of calls is not that of the screen. Calls follow the shape of the dose curve; as a rule, active = well fitted cell-killing curve with a large enough effect; inconclusive = small, poorly fitted or top-dose-only effect; inactive = no such curve, though single readings can be large or run the other way. Potencies beside an inconclusive call are fits to weak or partial responses and may not hold up.

Assay: qHTS Screen for Compounds that Selectively Target Cancer Cells with p53 Mutations: Cytotoxicity of p53ts Cells at the Nonpermissive Temperature; also: nearly all actives have a fitted effect of over 55% in size
Details: H1299-p53A138V viability at 39C, ATP luminescence, 24 h; activity change, negative = cell killing: at 46.1 µM (top of the series)
% is scaled to controls: 0 for no effect and ±100 for the full control effect; potency is read from the fitted curve at half-maximal effect; tags tell the direction and shape of the fitted curve.

| SMILES | Potency | activity change, negative = cell killing |
| --- | --- | --- |
| c1ccc2c(c1)nnn1c3ccccc3nc21 | inconclusive: 31.6 µM [cytotoxic, single point] |  |
| Cc1cc(C)cc(NS(=O)(=O)c2ccc3[nH]cc(C(=O)NCc4ccccc4Cl)c(=O)c3c2)c1 |  | inactive: -7.72% |
| O=C(CSc1nnc(-c2ccc([N+](=O)[O-])cc2)o1)Nc1ccccc1 | inconclusive: 2.51 µM [cytotoxic, full curve] |  |
| COC(=O)c1ccc(Cn2nnc3c(=O)[nH]c(C4CCCN(S(=O)(=O)c5cccc(Cl)c5)C4)nc32)cc1 (stereo unspecified) |  | inactive: -20.5% |
| Cc1cccc(-c2nsc(SCC(=O)N3CCCC3)n2)c1 | inconclusive: 10 µM [cytotoxic, partial curve] |  |
| COc1ccc(N2CCN(c3nc4ccc(C)cc4n4nnnc34)CC2)cc1 |  | inactive: -1.52% |
| COc1ccc(-c2cn3cccnc3n2)cc1NC(=O)c1cc(C)cc(C)c1 |  | inactive: -7.97% |
| Cc1cc(Cl)ccc1OCC(=O)N(Cc1ccco1)Cc1ccco1 | inconclusive: 31.6 µM [cytotoxic, partial curve] |  |
| CCOc1ccc2nc(NC(=O)C(CC)Sc3nc(C)cc(=O)[nH]3)sc2c1 (stereo unspecified) | inconclusive: 10 µM [cytotoxic, partial curve] |  |
| CCCCC(=O)Nc1ccc2c(c1)nc1n2CCSC1 | inconclusive: 10 µM [cytotoxic, partial curve] |  |
| C/C(=N\Nc1nc2ccccc2[nH]1)c1cc2ccccc2o1 | active: 12.6 µM |  |
| CCn1c(C(=O)N2CCCC(C(=O)N3CCN(c4cc(C)ccc4C)CC3)C2)cc2sccc21 (stereo unspecified) | inconclusive: 10 µM [cytotoxic, partial curve] |  |
| CN(C(=O)CCS(=O)(=O)c1cc2c(cc1Cl)NC(=O)CO2)C1CCCCC1 | inconclusive: 5.62 µM [cytotoxic, single point] |  |
| Cc1ccc(CCNC(=O)CCS(=O)(=O)c2cc3c(cc2C)NC(=O)CO3)cc1 | inconclusive: 0.794 µM [cytotoxic, full curve, poor fit] |  |
| Cc1ccccc1CN1c2ccccc2-c2nc(SCC(=O)NCc3ccccc3)ncc2S1(=O)=O | inconclusive: 31.6 µM [cytotoxic, single point] |  |
| Cc1ccc(C2=Nc3ccccc3N(CC(=O)NCc3ccccc3Cl)C(=O)C2)cc1C | inconclusive: 12.6 µM [cytotoxic, partial curve] |  |
| COc1ccc(N2Cc3cccc(C(=O)Nc4ccc(F)cc4)c3C2=O)cc1 | inconclusive: 12.6 µM [cytotoxic, single point] |  |
| COc1ccccc1CC(Cc1nc2ccccc2[nH]1)c1nc2ccccc2[nH]1 (stereo unspecified) | inconclusive: 31.6 µM [cytotoxic, single point] |  |
| Cc1ccc2nc(-c3ccc(NC(=O)COc4ccccc4)cc3)sc2c1 | inconclusive: 7.94 µM [cytotoxic, partial curve] |  |
| CCN(c1cccc(C)c1)S(=O)(=O)c1nnc(NC(=O)c2ccccc2Cl)s1 | inconclusive: 31.6 µM [cytotoxic, single point] |  |
| O=[N+]([O-])c1ccc2c(c1)c(S(=O)(=O)O)cc1nonc12 |  | inactive: 23% [at 9.22 µM] |
| Cc1ccc(S(=O)(=O)c2c(C)nn(C(C)(C)C)c2OC(=O)c2cccs2)cc1 | active: 15.8 µM |  |

| SMILES | Potency | activity change, negative = cell killing |
| --- | --- | --- |
| C=C(CC1([C@@H](NP(=O)(c2ccccc2)c2ccccc2)[C@H]2C[C@@H]2CCCC)CC1)c1cccc(OC)c1 | inconclusive: 20 µM [cytotoxic, single point] |  |
| Cc1nc2ccccc2c2nc3ccccc3n12 |  | inactive: -5.28% |
| N#Cc1cccc(NC(=O)c2cc3c(s2)-c2ccc(Cl)cc2SC3)c1 | active: 10 µM |  |
| O=C(Cn1c(=O)c2cccn2c2ccc(F)cc21)N1CCN(c2ccc(F)cc2)CC1 | inconclusive: 4.47 µM [cytotoxic, partial curve] |  |
| O=C(COc1ccccc1)Nc1cccc(-c2cn3cccnc3n2)c1 | inconclusive: 15.8 µM [cytotoxic, single point] |  |
| COc1ccc(S(=O)(=O)c2cc(NS(=O)(=O)c3ccc(Cl)cc3)c(C)c(C)c2O)cc1 | inconclusive: 2.51 µM [cytotoxic, single point] |  |
| CCc1nn(CC(=O)NCc2ccccc2Cl)c(=O)c2cccn12 | inconclusive: 15.8 µM [cytotoxic, single point] |  |
| COc1ccc(-c2noc(C3CC(=O)N(c4ccccc4)C3)n2)c(OC)c1 (stereo unspecified) | inconclusive: 0.02 µM [cytotoxic, full curve, poor fit] |  |
| O=S(=O)(NCC(Nc1ccc(Cl)cc1)c1ccccc1)c1ccccc1 (stereo unspecified) | active: 22.4 µM |  |
| COc1ccc(-c2cn3nc(SCC(=O)Nc4ccc(C)c(Cl)c4)ccc3n2)cc1 | inconclusive: 7.94 µM [cytotoxic, full curve, poor fit] |  |
| CCOc1ccc(NC(=O)c2cc(S(=O)(=O)N3CCOCC3)ccc2F)cc1 | inconclusive: 0.794 µM [cytotoxic, full curve, poor fit] |  |
| Cc1ccc(C(=O)Nc2ccccc2C(=O)NC(C(=O)O)C(C)C)cc1 (stereo unspecified) | active: 10 µM |  |
| COc1cccc(C(=O)Nc2cccc(-c3nc4ncccc4o3)c2C)c1 |  | inactive: 1.66% |
| Cc1cccc(C)c1OC[C@@H](N)C(C)C |  | inactive: -6.27% |
| COc1ccc(-c2nc3cnc(Nc4cccc(OC)c4)nc3n(Cc3cccs3)c2=O)cc1 | inconclusive: 12.6 µM [cytotoxic, single point] |  |
| Cc1ccc(CNCc2c(C(=O)O)n(Cc3ccc(C)cc3)c3cc(C)ccc23)cc1 | inconclusive: 20 µM [cytotoxic, single point] |  |
| Cc1ccc(-c2noc(CN(C(=O)COc3cc(C)cc(C)c3C)C(C)C)n2)cc1 | inconclusive: 31.6 µM [cytotoxic, single point] |  |
| O=C(NCCCN1CCOCC1)c1csc2c1CCCC2 |  | inactive: 7.56% |
| CO[C@@H]1COC(=O)CC=C[C@@H](C)[C@@H]2C=C[C@@H](O)[C@@H](COC(=O)C/C=C\[C@H]1C)O2 |  | inactive: -7.57% [at 9.22 µM] |
| COc1ccc(CCNC(=O)c2cnc3sc(N4CCCC4)nn3c2=O)cc1OC | inconclusive: 0.005 µM [cytotoxic, full curve, poor fit] |  |
| CN(C(=O)c1cc2c(s1)-c1ccc(Cl)cc1SC2)c1cccc(C(F)(F)F)c1 | inconclusive: 31.6 µM [cytotoxic, single point] |  |
| Fc1ccc(-c2noc3ncnc(NCC4CCN(Cc5ccc(Cl)cc5)CC4)c23)cc1 | inconclusive: 7.94 µM [cytotoxic, partial curve, poor fit] |  |

| SMILES | Potency | activity change, negative = cell killing |
| --- | --- | --- |
| COc1ccccc1NC(=O)C1=C(C)Nc2nc(SCc3ccccc3F)nn2C1c1cccs1 (stereo unspecified) | inconclusive: 15.8 µM [cytotoxic, single point] |  |
| CCCCCNC(=O)CCn1c(=O)oc2ccccc21 | inconclusive: 1.58 µM [cytotoxic, partial curve] |  |
| COc1ccc(N2CCN(C(=O)c3cccc(NC(=O)c4nsc5ccccc45)c3)CC2)cc1 | inconclusive: 3.98 µM [cytotoxic, full curve] |  |
| CCOC(=O)c1ccc(NC(=O)Nc2cc3c(cc2N2CCCC2)n(C)c(=O)n3C)cc1 | inconclusive: 31.6 µM [cytotoxic, single point] |  |
| COc1ccccc1N1CCN(CCCCNS(=O)(=O)c2cccc3c(N(C)C)cccc23)CC1 | inconclusive: 10 µM [cytotoxic, partial curve] |  |
| O=S(=O)(Cc1nc2ccccc2s1)c1ccccc1 |  | inactive: -15.8% |
| O=C(c1ccc(CSc2nc3ccncc3n2Cc2ccccc2)cc1)N1CCCCCC1 | inconclusive: 20 µM [cytotoxic, partial curve] |  |
| Clc1ccccc1-c1nccc(-n2ccnc2)n1 |  | inactive: 0.166% |
| COc1ccc(-c2csc(NCc3ccco3)n2)cc1 | inconclusive: 15.8 µM [cytotoxic, partial curve] |  |
| COCC(C)NC(=O)c1cc(-c2cccc(OC)c2)on1 (stereo unspecified) | inconclusive: 12.6 µM [cytotoxic, partial curve] |  |
| COc1cc2c(cc1OC)-c1cc(NC3CCCC3)nc(=O)n1CC2 |  | inactive: -3.8% |
| CCc1ccc(NC(=O)Cn2c(=O)n(Cc3ccco3)c(=O)c3cccnc32)cc1 | inconclusive: 15.8 µM [cytotoxic, single point] |  |
| Cc1noc(C)c1-c1ccc2ncnc(N3CCC(C(=O)O)CC3)c2c1 |  | inactive: 9.43% |
| CCCCNC(=O)C1CCC(CNS(=O)(=O)c2ccc(NC(C)=O)cc2)CC1 (stereo unspecified) | inconclusive: 0.0316 µM [cytotoxic, full curve, poor fit] |  |
| Cc1cccc(-n2ncc3c(N4CCN(c5ccccc5)CC4)ncnc32)c1 |  | inactive: -5.53% |
| CCc1ccc(CNCc2c(C(=O)O)n(Cc3ccc(F)cc3Cl)c3cc(OC)ccc23)cc1 | inconclusive: 6.31 µM [cytotoxic, partial curve, poor fit] |  |
| CCc1ccccc1NC(=O)CCc1c(C)nn(-c2ccc(N3CCOCC3)nn2)c1C |  | inactive: -8.69% |
| CCCCC(=O)N(c1ccc(OCC)cc1)C1C=CS(=O)(=O)C1 (stereo unspecified) |  | inactive: -1.65% |
| COc1cc(/C=C(\C#N)C(N)=O)cc(CSc2nc3ccccc3s2)c1O | inconclusive: 25.1 µM [cytotoxic, partial curve] |  |
| O=S1(=O)C=C(Sc2nnc(-c3ccccc3)o2)c2ccccc21 | inconclusive: 31.6 µM [cytotoxic, single point] |  |
| CCn1c(=O)cc(OCC(=O)N2CCN(c3ccc(F)cc3)CC2)c2ccccc21 | inconclusive: 12.6 µM [cytotoxic, single point] |  |
| COc1ccc(Nc2c(-c3ccccn3)nc3ccc(Cl)cn23)cc1 | inconclusive: 0.02 µM [cytotoxic, full curve, poor fit] |  |
